Experimental data as given in article PMC3501490, “An Investigation of Hierachical Protein Recruitment to the Inhibitory Platelet Receptor, G6B-b” (PLoS ONE, 2012).
These are yes or no findings as the source states them, for the method shown. In cells and extracts the contact can be indirect. Some results given as binding are weak or reduced against the parent protein; the word gives no strength.

The chains behind the UniProt entries cited, without tags or fusion partners.
UniProt P41240: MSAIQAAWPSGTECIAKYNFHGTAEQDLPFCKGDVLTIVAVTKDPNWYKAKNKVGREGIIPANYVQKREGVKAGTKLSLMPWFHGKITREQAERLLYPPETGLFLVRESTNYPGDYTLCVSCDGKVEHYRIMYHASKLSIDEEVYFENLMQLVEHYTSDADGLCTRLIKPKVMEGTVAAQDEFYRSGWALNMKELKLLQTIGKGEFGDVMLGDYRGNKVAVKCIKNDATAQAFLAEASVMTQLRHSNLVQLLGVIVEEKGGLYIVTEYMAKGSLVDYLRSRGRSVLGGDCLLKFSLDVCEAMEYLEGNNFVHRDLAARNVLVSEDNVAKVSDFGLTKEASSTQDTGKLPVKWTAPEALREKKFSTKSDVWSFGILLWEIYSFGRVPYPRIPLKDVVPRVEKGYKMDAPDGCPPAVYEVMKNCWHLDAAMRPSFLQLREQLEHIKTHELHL
UniProt P06241: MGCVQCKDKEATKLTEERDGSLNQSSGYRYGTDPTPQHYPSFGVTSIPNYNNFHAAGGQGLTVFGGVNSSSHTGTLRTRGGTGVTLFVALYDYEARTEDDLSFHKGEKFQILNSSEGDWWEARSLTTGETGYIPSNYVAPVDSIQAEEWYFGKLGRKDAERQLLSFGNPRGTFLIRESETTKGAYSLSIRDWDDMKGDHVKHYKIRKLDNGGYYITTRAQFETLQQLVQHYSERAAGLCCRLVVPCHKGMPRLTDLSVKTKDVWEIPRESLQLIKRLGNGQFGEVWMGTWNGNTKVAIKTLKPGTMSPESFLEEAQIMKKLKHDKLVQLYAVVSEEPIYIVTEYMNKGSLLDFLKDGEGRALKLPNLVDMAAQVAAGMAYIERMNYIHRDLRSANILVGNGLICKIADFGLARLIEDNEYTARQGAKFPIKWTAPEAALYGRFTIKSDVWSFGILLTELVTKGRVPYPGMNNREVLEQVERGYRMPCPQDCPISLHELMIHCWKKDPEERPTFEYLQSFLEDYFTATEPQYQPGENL

Biological target: T1, G6B-b pY237 phosphopeptide (biotinylated 60-mer, amino acids 182 to 241, ITSM phosphorylated) (human) (UniProt O95866)
T1 sequence (peptide, phosphotyrosine at 237; biotin (end not stated)): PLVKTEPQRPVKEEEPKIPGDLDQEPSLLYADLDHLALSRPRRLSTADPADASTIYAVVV
Assay: pull-down; biotinylated G6B-b peptides on Streptactin beads incubated with pre-cleared NP-40 lysate of washed human platelets activated with 1 ug/ml CRP for 90 seconds, 4°C, 30 minutes; Western blotting; only the target purified

Substance | binding
Csk (endogenous, human platelets) (from UniProt P41240 1-450) (enzyme) | binds
Fyn (endogenous, human platelets) (from UniProt P06241 1-537) (enzyme) | binds
